# Test results: PubChem BioAssay AID1460 (National Center for Advancing Translational Sciences (NCATS), 2008)
# Among all 270,000 compounds or so, about 5,800 (2.1%) were called active. Inconclusive results, whose numbers are uncertain, are shown with a selection of clear calls. Calls follow the shape of the dose curve; as a rule, active = well fitted inhibition curve with a large enough effect; inconclusive = small, poorly fitted or top-dose-only effect; inactive = flat fitted curve, though single readings scatter. Potencies of inconclusive entries are doubtful fits and often do not repeat.
# Molecular target: Microtubule-associated protein tau (Homo sapiens) (UniProt P10636)
# UniProt P10636, sequence (P10636 whole entry, looked up): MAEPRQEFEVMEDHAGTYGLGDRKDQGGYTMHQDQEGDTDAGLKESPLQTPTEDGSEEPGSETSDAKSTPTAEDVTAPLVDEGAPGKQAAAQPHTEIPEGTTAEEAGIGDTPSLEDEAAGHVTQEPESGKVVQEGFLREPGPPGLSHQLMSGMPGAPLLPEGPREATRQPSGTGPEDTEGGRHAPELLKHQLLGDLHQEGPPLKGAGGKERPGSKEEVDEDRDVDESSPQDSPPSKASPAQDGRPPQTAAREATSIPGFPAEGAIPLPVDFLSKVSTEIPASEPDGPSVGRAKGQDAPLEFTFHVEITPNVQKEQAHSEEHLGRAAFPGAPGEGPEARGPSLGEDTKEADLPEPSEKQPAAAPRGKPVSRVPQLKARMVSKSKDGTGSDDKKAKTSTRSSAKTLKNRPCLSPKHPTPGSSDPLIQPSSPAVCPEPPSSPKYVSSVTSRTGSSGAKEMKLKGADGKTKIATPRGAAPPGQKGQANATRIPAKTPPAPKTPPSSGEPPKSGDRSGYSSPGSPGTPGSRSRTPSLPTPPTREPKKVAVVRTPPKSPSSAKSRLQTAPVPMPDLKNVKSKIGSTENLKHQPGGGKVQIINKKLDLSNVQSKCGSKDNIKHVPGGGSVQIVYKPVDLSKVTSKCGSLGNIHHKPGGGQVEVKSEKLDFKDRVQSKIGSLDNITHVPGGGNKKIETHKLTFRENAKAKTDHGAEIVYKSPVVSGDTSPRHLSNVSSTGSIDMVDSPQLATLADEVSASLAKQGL
# Experiment: qHTS for Inhibitors of Tau Fibril Formation, Thioflavin T Binding; also: nearly all actives have a fitted effect of over 55% in size
# Settings: recombinant tau K18 P301L, heparin-induced fibrillization, ThT fluorescence; series mostly up to 57.4 µM; activity, negative = inhibition: at the top concentration
# Summary of the method: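 Fibril formation assay: tau K18 P301L at 15 uM with trace Alexa 594 label, heparin inducer 20 uM, pH 7 sodium acetate buffer, 37 C for 6 hr; endpoint ThT signal.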
# % is scaled to controls: 0 for no effect and ±100 for the full control effect; potency is read from the fitted curve at half-maximal effect; tags tell the direction and shape of the fitted curve.
Compound,Potency,"activity, negative = inhibition"
COc1cc(C(=O)Nc2ccc(N(C)C)cc2)c([N+](=O)[O-])cc1OC,"inconclusive: 3.98 µM [inhibitor, partial curve]",–
Cc1cccc2sc(NNC(=O)C3COc4ccccc4O3)nc12 (configuration not stated),"inconclusive: 22.4 µM [inhibitor, partial curve]",–
CCn1c(SCC(=O)Nc2sc3c(c2C#N)CCCC3)nnc1-c1ccco1,–,inactive: -10.4%
C(/C=C/c1ccco1)=N/N1CCN(c2ccccc2)CC1,"inconclusive: 15.8 µM [inhibitor, partial curve]",–
COc1ccc(N=C2SC(C(=O)Nc3ccc4c(c3)OCO4)CC(=O)N2C)cc1 (configuration not stated),"inconclusive: 22.4 µM [inhibitor, partial curve]",–
O=C1c2cc(F)ccc2OC2(CCNCC2)C12CC(c1ccccc1)=NO2 (configuration not stated),"inconclusive: 39.8 µM [inhibitor, single point]",–
CCOC(=O)N1CCN(C(=O)C2CC(=O)N(c3ccc(OC)cc3)C2c2ccc(OC)cc2)CC1 (configuration not stated),–,inactive: -2.62%
CCc1ccc(OCC(=O)NC2CC(C)(C)NC(C)(C)C2)cc1,active: 12.6 µM,–
COc1ccccc1N1CCN(S(=O)(=O)c2ccc3c(c2)CCCN3C(C)=O)CC1,–,inactive: 0.518%
CCOCCCn1c(SCC(=O)Nc2ccc(F)cc2)nc2c(sc3ccccc32)c1=O,–,inactive: -12.7%
Cc1[nH]nc2ncc(C(=O)c3cc(Cl)cc(Cl)c3O)cc12,"inconclusive: 11.2 µM [inhibitor, partial curve]",–
N#Cc1c(N)n(-c2ccc(C(=O)O)cc2)c2nc3ccccc3nc12,–,inactive: -4%
COc1ccc(Nc2ncc(C(=O)Nc3ccc(F)cc3F)c3ccccc23)cc1,"inconclusive: 10 µM [inhibitor, partial curve]",–
Cc1nc(C)n(CC(O)COc2ccc3cc(Br)ccc3c2)n1 (configuration not stated),"inconclusive: 17.8 µM [inhibitor, partial curve]",–
COC(=O)/C(C#N)=C/c1c(-c2ccccc2)nc2n1CCS2,–,inactive: -9.7%
CN(C(=O)c1ccco1)c1nc(CC(=O)Nc2ccccc2)cs1,"inconclusive: 28.2 µM [inhibitor, single point]",–
Cc1c(NS(=O)(=O)c2ccc(NC3CCCC3)c([N+](=O)[O-])c2)c(=O)n(-c2ccccc2)n1C,"inconclusive: 12.6 µM [inhibitor, partial curve]",–
Cc1cc(=O)c2cc3nc(-c4cccnc4)oc3c(Br)c2o1,"inconclusive: 11.2 µM [inhibitor, partial curve]",–
Cc1nn(-c2ccccc2)c(C)c1/C=N/NC(=O)c1ccccc1NS(=O)(=O)c1cccs1,"inconclusive: 28.2 µM [inhibitor, single point]",–
O=C(CC1NCCNC1=O)Nc1ccc(F)c(Cl)c1 (configuration not stated),–,inactive: -2.42%
Oc1c(C(c2ccccc2)N2CCN(Cc3ccccc3)CC2)sc2ncnn12 (configuration not stated),–,inactive: -14.1%
CNC(=O)c1cc2cccc(OC)c2oc1=O,–,inactive: -2.97%
COc1cc(=O)[nH]c(=O)n1C(=O)Cc1ccccc1,–,inactive: -6.37%
CC(C)COc1ccc(-c2nnc(-c3ccco3)o2)cc1,"inconclusive: 31.6 µM [inhibitor, partial curve]",–

Compound,Potency,"activity, negative = inhibition"
Cc1cc(C(=O)N/N=C/c2cc(Br)ccc2OC(=O)c2ccc(Br)cc2)n[nH]1,"inconclusive: 7.08 µM [inhibitor, partial curve]",–
Cc1cc(=O)n2nc(N3CCC(C(=O)NCCCOC(C)C)CC3)sc2n1,"inconclusive: 8.91 µM [inhibitor, partial curve, poor fit]",–
CCOC(=O)N1CCN(C(=O)CCCn2c(=S)[nH]c3ccc(Br)cc3c2=O)CC1,"inconclusive: 3.55 µM [inhibitor, partial curve]",–
COc1cc(C(=O)Nc2oc(-c3ccccc3)c(-c3ccccc3)c2C#N)cc(OC)c1OC,"inconclusive: 28.2 µM [inhibitor, single point]",–
Cn1c(COc2ccccc2)nnc1SCC(=O)c1cccc([N+](=O)[O-])c1,"inconclusive: 10 µM [inhibitor, partial curve]",–
COc1ccc(NC(=O)Cn2nnc(C(=O)Nc3ccccc3C)c2N)cc1,–,inactive: -6.51%
COc1ccc2c(c1)C1=NN(/C(C)=C/C(C)=O)C(c3ccc(F)cc3)C1CC2 (configuration not stated),"inconclusive: 31.6 µM [inhibitor, single point]",–
COc1cc2c(cc1OC)CN(CCC(=O)c1ccc(Br)cc1)CC2,"inconclusive: 3.55 µM [inhibitor, single point]",–
O=C(CN(CCc1ccccc1)C(=O)Cn1nnc(-c2cccs2)n1)NCc1ccco1,–,inactive: -9.59%
Cc1ccccc1N/N=C/c1ccc(C#N)cc1,"inconclusive: 14.1 µM [inhibitor, partial curve]",–
C[C@@H]1CC=C[C@@H]2[C@H]1C(=O)N(Cc1ccccc1)[C@H]2c1ccccc1Br,"inconclusive: 3.55 µM [inhibitor, partial curve]",–
Cc1ccccc1CNC(=O)CN1CCSc2ccccc21,–,inactive: -7.38%
CC(C)(C)c1csc(NC(=O)c2ccc(Cl)s2)n1,–,inactive: -17.6%
N#CC(C(=O)NCc1ccco1)c1nc2ccccc2nc1N1CCOCC1 (configuration not stated),"inconclusive: 25.1 µM [inhibitor, partial curve]",–
CSc1ccc(C2C(C#N)=C(N)N(c3ccccc3)C3=C2C(=O)CCC3)cc1 (configuration not stated),"inconclusive: 25.1 µM [inhibitor, partial curve]",–
CCc1ccccc1-n1c(SCC(=O)Nc2ccc(C)cc2)nc2n[nH]c(C)c2c1=N,–,inactive: -2.55%
COc1ccc(OCC(=O)Nc2ccc3c(c2)nc(CN2CCCC2)n3C)cc1,"inconclusive: 25.1 µM [inhibitor, partial curve]",–
O=C(N/N=C/c1ccccn1)c1cc([N+](=O)[O-])cc([N+](=O)[O-])c1,–,inactive: -16.9%
CCCCC(=O)N/N=C/c1ccc(Sc2cccc3cccnc23)o1,–,inactive: -17.3%
COc1ccc(-c2nc3ccc(N4CCN(C)CC4)cc3c(=O)[nH]2)cc1,"inconclusive: 10 µM [inhibitor, partial curve]",–
CNc1c(C(=O)O)ccc2c1C(=O)c1ccccc1C2=O,"inconclusive: 17.8 µM [inhibitor, partial curve]",–
COc1ccc(C(=O)NCC(c2ccc(N(C)C)cc2)N2CCOCC2)cc1 (configuration not stated),"inconclusive: 15.8 µM [inhibitor, partial curve]",–
O=C1CC(c2ccco2)Cc2nc(Nc3ccc(F)cc3)ncc21 (configuration not stated),"inconclusive: 14.1 µM [inhibitor, partial curve]",–
CCC(C)n1c(SCc2ccc(F)cc2Cl)nc2ccsc2c1=O (configuration not stated),–,inactive: 11%

Compound,Potency,"activity, negative = inhibition"
CCOC(=O)C1=C(O)/C(=C\c2cccs2)N=C1C,"inconclusive: 20 µM [inhibitor, partial curve]",–
Cn1nc(C(F)(F)F)cc1C(=O)NC1CCCCCC1,–,inactive: -4.15%
CCOC(=O)c1c(NC(=O)c2cccs2)sc(C(=O)N(C)C)c1C,"inconclusive: 35.5 µM [inhibitor, single point]",–
Cc1ccccc1C(=O)Nc1sc2c(c1C(=O)N1CCCCC1)CCC(C(C)(C)C)C2 (configuration not stated),"inconclusive: 22.4 µM [inhibitor, single point]",–
COc1ccc(/C=N/NC(=O)c2ccc(CN3C(=O)c4cccc5cccc3c45)cc2)cc1O,"inconclusive: 10 µM [inhibitor, partial curve]",–
O=C(CSc1nnc(-c2cccnc2)n1Cc1ccccc1)NCc1ccco1,"inconclusive: 35.5 µM [inhibitor, single point]",–
COc1ccc(/C=N/NC(=O)c2ccc(Br)o2)cc1Cn1cc([N+](=O)[O-])cn1,–,inactive: -12%
CC/C(C)=N/NS(=O)(=O)c1ccc(C)c([N+](=O)[O-])c1,–,inactive: -4.7%
Cn1c(=O)c2c(nc(NCCO)n2C)n(C)c1=O,–,inactive: 3.12%
COCCN1C(=O)N[C@@H](c2ccc(Br)cc2)C(C(=O)OC)=C1C,inactive,–
COc1ccc(Cl)cc1NC(=O)CSc1cc(C)[nH]c(=O)n1,"inconclusive: 44.7 µM [inhibitor, single point]",–
CCOC(=O)c1sc(/N=C/c2ccc(O)cc2O)cc1C,"inconclusive: 14.1 µM [inhibitor, partial curve]",–
CCOc1ccccc1C(=O)Nc1cc(Cl)ccc1O,"inconclusive: 17.8 µM [inhibitor, partial curve]",–
Cc1ccccc1-n1ccnc1SCC(=O)NCc1ccco1,"inconclusive: 31.6 µM [inhibitor, single point]",–
CCOc1ccc(CN(C(=O)c2nc(SC)ncc2Cl)C2CCS(=O)(=O)C2)cc1 (configuration not stated),–,inactive: 4.11%
N#C/C(=C\c1cc([N+](=O)[O-])c(N2CCOCC2)cc1N1CCOCC1)c1nc2ccccc2[nH]1,active: 15.8 µM,–
CCc1nn(CC(=O)NCc2ccccc2Cl)c(=O)c2cc3ccccc3n12,–,inactive: -3%
Cc1ccc2cc3cc(C(=O)N4CCN(c5ccccc5)CC4)oc3nc2c1,"inconclusive: 2.51 µM [inhibitor, full curve, poor fit]",–
O=c1c(N2CCN(c3cccc(Cl)c3)CC2)csc2ccccc12,active: 10 µM,–
Cc1ccnc2nc(C(=O)Nc3nnc(-c4ccc(Cl)cc4)o3)nn12,–,inactive: -2.96%
CC1(C)Cc2c(C#N)c(NCC3CCCO3)nc(-c3ccco3)c2CO1 (configuration not stated),"inconclusive: 15.8 µM [inhibitor, partial curve]",–
CCOc1ccc(N(Cc2cc3cc(OC)ccc3[nH]c2=O)C(=O)C2CCCO2)cc1 (configuration not stated),"inconclusive: 35.5 µM [inhibitor, single point]",–
N#Cc1nc(COc2cccc(Cl)c2)oc1N1CCCC1,"inconclusive: 31.6 µM [inhibitor, partial curve]",–
CCOc1ccc(NC(=O)[C@H]2O[C@@H]3OC(C)(C)O[C@@H]3[C@H]3OC(C)(C)O[C@H]32)cc1,–,inactive: 11.4%
